# According to PubChem BioAssay AID2202238 (Ras Initiative Chemistry Research Team, Frederick National …, 2025):
# Among all 2,200 compounds or so, fewer than 10 were called active. The list shows a part of the results. Entries without a call are filed as inconclusive in the source.
# Target: GTPase KRas (Homo sapiens) (UniProt P01116)
# Experiment: Cysteine mutants labelled by reactive fragments (mass read-out) (AID 2202238)
# Parameters: protein at 5 µM with 500 µM competing thiol for 1.5 h
# Details: KRAS G12D cysteine mutants, disulfide tethering, MALDI-TOF labeling; stronger effect = higher value; H27C mutant labeling; fragment at 500 µM
# Chain of UniProt P01116 (P01116 whole entry, looked up, the tested form may be a part): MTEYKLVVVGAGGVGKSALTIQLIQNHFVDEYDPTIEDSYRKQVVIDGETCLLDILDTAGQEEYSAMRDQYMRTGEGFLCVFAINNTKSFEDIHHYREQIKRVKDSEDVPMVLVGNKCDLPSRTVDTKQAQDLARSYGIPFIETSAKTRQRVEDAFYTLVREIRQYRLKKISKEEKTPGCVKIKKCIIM
row,SMILES,percent labeling [%]
1,O=C(CCNC(=O)Nc1ccc(Br)cc1)NCCS,15.7
2,NC(=O)c1cn(C2CN(C(=O)CCS)C2)nn1,30.8
3,Cc1c(Br)cc(C(=O)NCCS)c(=O)n1C,43.1
4,O=C(NCCS)c1nn(-c2cc(Cl)ccc2F)c2c1CCC2,29.5
5,O=C(CCS)N1CCC2(CC1)Cc1ccccc1NC2=O,58.4
6,CCn1cc(-c2cc(C(F)(F)F)n(CCCNC(=O)CCS)n2)cn1,27.4
7,O=C(CCS)NC1CCN(CCOc2ccc(Cl)cc2)CC1,48.8
8,Cc1ccc(-n2ncc(NC(=O)CCS)c2C)cc1,39.2
9,O=C(NCCS)C1(c2c(Cl)cccc2Cl)CCC1,29.3
10,O=C(NCCS)c1ccc(CN2C(=O)CNC2=O)cc1,42.3
11,O=C(NCCS)c1csc(-c2cccc3ccccc23)n1,28.6
12,O=C(CCS)NC1CC(Cn2ccnn2)C1 (stereo unspecified),30.2
13,O=C(NCCS)c1sc(N2CCOCC2)nc1Cl,38.5
14,Cc1c(C(=O)NCCS)nnn1-c1ccc(F)cc1,28.1
15,O=C(NCCS)c1coc(-c2c(F)cccc2F)n1,35.7
16,CC1(C)Cc2occc2CN(C(=O)CCS)C1,37.6
17,O=C(CCS)N1CCC(c2c[nH]c3ccc(F)cc23)CC1,42.8
18,COc1cc(CNC(=O)CCS)ccc1OCc1cccnc1,41.4
19,O=C(NCCS)[C@]12CCC[C@H]1CN(Cc1ccccc1)C2,43.9
20,CN(CC1CCCCC1)C(=O)C(C)(C)NC(=O)CCS,40
21,O=C(NCCS)C1CCN(C(=O)c2csc(-c3ccccc3)n2)CC1,24.5
22,Cc1ccc(CNC(=O)CCS)c(-n2cc(Cl)cn2)n1,42.2
23,O=C(NCCS)c1cnc(-c2ccccc2)nc1,16.5
24,CCc1n[nH]c(=O)c(C(=O)NCCS)c1CC,31.4

row,SMILES,percent labeling [%]
1,Cc1ccc(C)c(Sc2ccc(NC(=O)CCS)cc2)c1,26.3
2,O=C(CC1(Cn2cnnn2)CCCCC1)NCCS,38
3,O=C(CCS)NC1(Cc2cccc(Br)c2)CC1,37.7
4,O=C(CCS)NCCc1ccc(O)cc1O,40.6
5,CC(C)(NC(=O)CCS)c1nccc(C(F)(F)F)n1,33.7
6,O=C(NCCS)c1cc(Br)c2c(c1)OCCO2,35.9
7,O=C(NCCS)c1nc(-c2cccc(C(F)(F)F)c2)cs1,41.8
8,O=C(NCCS)c1csc(Cc2ccccc2F)n1,20.8
9,CCc1c(C(=O)NCCS)[nH]c(C)c1C(N)=O,47.6
10,O=C(NCCS)c1csc2cc(Cl)cnc12,34.2
11,O=C(NCCS)c1cc(-c2ccncc2)nc2ccccc12,33.7
12,O=C(CCS)N1C[C@@H]2Oc3c(F)ccc(F)c3O[C@@H]2C1,52.7
13,N#Cc1cccc(CN2C(=O)CCC2C(=O)NCCS)c1 (stereo unspecified),42.4
14,O=C(CCS)Nc1ccn(CCN2CCNC2=O)n1,34.2
15,Cc1ccc(-c2cc(C(=O)NCCS)c3cnn(C(C)C)c3n2)s1,17.7
16,Nc1ncnc2c1ncn2C[C@H]1CC[C@@H](C(=O)NCCS)O1,53.5
17,O=C(NCCS)c1ccc(Oc2ccc(Cl)cc2)c(F)c1,15.3
18,Cc1nc(C2CCCC2)sc1C(=O)NCCS,30.7
19,Cc1sc(C2(NC(=O)CCS)CCC2)nc1-c1ccccc1F,29.2
20,Cn1cc(CCC(=O)NCCS)cn1,34.8
21,O=C(CCS)NCCc1nc2ncccn2n1,20.6
22,NC(=O)c1cn(C2CCN(C(=O)CCS)CC2)nn1,35.7
23,O=C(CCS)NCc1ccnc(-n2cncn2)c1,33.6
24,O=C(CCS)N1CCN(C(=O)c2n[nH]c3ccccc23)CC1,48.8

row,SMILES,percent labeling [%]
1,O=C(NCCS)c1ccc(-n2ccnc2)cn1,45.2
2,O=C(CCn1c2ccc(Cl)cc2c2cc(Cl)ccc21)NCCS,16.5
3,NC(=O)NC(CC(=O)NCCS)c1cccs1 (stereo unspecified),23.1
4,O=C(CCS)N1CCN(C(=O)c2cccc(F)c2)CC1,47.2
5,Cc1cc(C)n(C)c(=O)c1CNC(=O)CCS,26
6,Cc1nc(-c2cnn(C)c2)sc1C(=O)NCCS,45.8
7,COc1ccccc1N(Cc1nc(C)cs1)C(=O)CCS,42.1
8,CN(C)Cc1ccc(CNC(=O)CCS)s1,46.9
9,O=C(CCS)N1CCC(c2ncccc2Cl)CC1,52
10,O=C(NCCS)C1CCN(C(=O)c2ccc(-c3ncccn3)cc2)CC1,37.9
11,COCc1nc(CNC(=O)CCS)c(-c2ccccc2)s1,37.7
12,CCc1cccc2c(F)c(C(=O)NCCS)[nH]c12,20.6
13,Cc1c(C(=O)NCCS)cnc2c1c(=O)n(C)c(=O)n2C,46.7
14,O=C(CCS)Nc1cnn(CC(=O)NC2CC2)c1,27.4
15,O=C(CCS)NCC(=O)Nc1ccccc1Br,40.9
16,CN1CCN(C2(C(=O)NCCS)CCCC2)CC1,46.6
17,O=C(CCS)Nc1ccc(-c2nnc3n2CCCCC3)cc1,44.5
18,COc1ccc(OC)c(C2CC2C(=O)NCCS)c1 (stereo unspecified),36.3
19,O=C(NCCS)C1(Cc2cn[nH]n2)CCCC1,35.2
20,CC(C)c1cc(C(=O)NCCS)c(C(C)C)[nH]1,22.7
21,CCn1nccc1C1CCN(C(=O)CCS)CC1,41
22,O=C1CN(S(=O)(=O)c2cccc(NC(=O)CCS)c2)CCN1,47.3
23,O=C(NCCS)C(c1ccccc1)n1cnc2ccccc21 (stereo unspecified),30.6
24,NC(=O)c1ccccc1OCc1cccc(C(=O)NCCS)c1,34.3

row,SMILES,percent labeling [%]
1,CN(Cc1coc2cc(F)cc(F)c12)C(=O)CCS,34.5
2,CN1C(=O)CC(C(=O)NCCS)c2ccccc21 (stereo unspecified),30.9
3,O=C(CCS)N1CCC(n2cccn2)CC1,40.4
4,O=C(CCS)N1CCC(c2ccc(F)cc2Cl)CC1,43.4
5,CN(c1cc(C(=O)NCCS)ccn1)C1CCCC1,30.3
6,CCc1ccc(C2COCCN2C(=O)CCS)o1 (stereo unspecified),38.4
7,O=C(NCCS)c1cccc2ccn(Cc3ccccc3)c12,26.5
8,COCCn1cc(C(=O)NCCS)c(=O)cc1C,32.2
9,COC(=O)c1cnc(CC2CCN(C(=O)CCS)CC2)s1,48.9
10,O=C(CCS)NCc1cnc(-c2ccccc2)[nH]1,35.8
11,CN(C)C(=O)Cc1ccc(S(=O)(=O)N2CCC(C(=O)NCCS)CC2)cc1,27.9
12,O=C(CCS)NCc1noc2cc(F)ccc12,42.1
13,O=C(Cc1cc2cc(Cl)ccc2[nH]1)NCCS,11.4
14,O=C(NCCS)C1CCN(S(=O)(=O)N2CCCCC2)CC1,33.4
15,CC(C)(C)C(=O)N1CCOC(C(=O)NCCS)C1 (stereo unspecified),28
16,O=C(CCS)N1CCC(c2n[nH]c(=O)o2)CC1,32.2
17,O=C(NCCS)c1cc(-c2ccn[nH]2)ccc1F,51.7
18,O=C(CCc1sccc1Br)NCCS,39.7
19,CC(C)Cc1nnc(NC(=O)CN(C)C(=O)CCS)s1,34.9
20,COC(=O)C1CC2(CCS(=O)(=O)CC2)CN1C(=O)CCS (stereo unspecified),33.4
21,O=C(CCS)NC1CCCOC1c1ccncc1 (stereo unspecified),29.6
22,O=C(NCCS)c1cnc(-c2ccoc2)s1,11.9
23,COc1cc(Br)c(CCNC(=O)CCS)cc1OC,45.1
24,O=C(CCS)N1CCn2cc(Br)cc2C1,6.4

row,SMILES,percent labeling [%]
1,O=C(CCS)N1CCC(CN2CCCCC2=O)CC1,34.3
2,COc1cc(CNC(=O)CCS)ccc1OC(F)F,40.7
3,O=C(NCCS)c1cc(-c2cccc(F)c2)no1,16.2
4,Cc1c(C(=O)NCCS)ccc2cnc(C3CC3)n12,0
5,O=C(NCCS)c1cnccc1Oc1ccccc1,45.9
6,Cc1cc(F)ccc1CC1(C(=O)NCCS)CC1,26.7
7,O=C(CCS)Nc1cnn(Cc2ccccn2)c1,37.5
8,O=C(CCS)NCc1cnc2ccccc2c1,38
9,CN(C)C(CCC(=O)NCCS)c1ccccc1 (stereo unspecified),49.9
10,O=C(CCS)NCc1cccc(C(=O)N2CCOCC2)c1,35.2
11,COc1nc(CNC(=O)CCS)ccc1OCc1ccccc1,36.2
12,O=C(Nc1ccc2c(c1)CCO2)C1CCCCN1C(=O)CCS (stereo unspecified),29.3
13,CCn1cc(CC(=O)NCCS)c2ccccc21,29.3
14,O=C(Cc1ccccc1Nc1c(Cl)cccc1Cl)NCCS,20.8
15,Cn1ccnc1CN1CCN(C(=O)CCS)CC1,23.6
16,O=C(NCCS)c1cn([C@@H]2COC[C@H]2O)nn1,44
17,O=C(NCCS)c1cc(C2CC2)nc2ccccc12,31.3
18,O=C(CCS)NCc1ccc2c(c1)CC(=O)N2,19.4
19,COc1ccc(C(=O)NCCS)c(OC(F)F)c1,48.7
20,O=C(CCS)N1CCN(c2ncnc3ccsc23)CC1,57
21,O=C(CCS)Nc1ncn(C2CCCCC2)n1,38.7
22,CN1C(=O)NC2(CCN(C(=O)CCS)CC2)C1=O,36.9
23,CCN(CC)C(=O)c1cc(NC(=O)CCS)nn1C,43.8
24,O=C(CCS)Nc1cncc(-c2nccs2)c1,49.8

row,SMILES,percent labeling [%]
1,O=C(CCS)N1CC(Oc2ccc(Cl)cc2)C1,34.7
2,O=C(CC1(CCc2ccccc2)CCCC1)NCCS,9.8
3,O=C(CCS)NCC12CC(C1)C(C(F)(F)F)O2 (stereo unspecified),31.5
4,COc1ccc2cc(CNC(=O)CCS)ccc2c1,9.5
5,O=C1CCC(c2ccc(C(=O)NCCS)cc2)N1 (stereo unspecified),29.7
6,O=C(CCS)NC1(c2cccc(F)c2F)CCCC1,36.4
7,O=C(CCS)NCCc1ccc(-n2cnnc2)cc1,38
8,O=C(CCS)N1CCC2(CC1)OCCc1ccccc12,50.7
9,CCOC(=O)C1C2CC(CN(C(=O)CCS)C2)N1C(=O)OC(C)(C)C (stereo unspecified),24.9
10,Cc1cc2ncc(C(=O)N(C)CC(=O)NCCS)c(C)n2n1,33.2
11,O=C(CCS)N1CCOCc2cc(Br)ccc21,39.5
12,O=C(CCS)N1CCc2c(ncn2-c2ccc(F)cc2)C1,52.2
13,O=C(NCCS)C1COc2ccccc2O1 (stereo unspecified),38.5
14,Cc1nc(C2CCN(C(=O)CCS)C2)n[nH]1 (stereo unspecified),32
15,O=C(CCS)Nc1ccc2[nH]ncc2c1Cl,43
16,CC(Cc1ccc(F)c(F)c1)C(=O)NCCS (stereo unspecified),34.1
17,NC(=O)c1cc(NC(=O)CCS)ccc1Cl,41.9
18,O=C(NCCS)C(c1ccccc1)N1CCCCC1=O (stereo unspecified),32.2
19,O=C(NCCS)c1ccc(-c2ccc(F)cc2)o1,28.5
20,O=C(CCS)N1CC(O)(c2ccc(F)cc2)C1,42.3
21,O=C(NCCS)[C@@H]1C[C@@H]1c1nc2ncccc2[nH]1,23.9
